From PubChem BioAssay AID1508624 (National Center for Advancing Translational Sciences (NCATS), 2021)
Screen size: about 48,000 compounds; about 120 (0.25%) were called active. Inconclusive results (about 4%) are left out. Calls come from the whole dose curve; as a rule, active = well fitted activation curve with a large enough effect; inconclusive = small, poorly fitted or top-dose-only effect, or another doubt; inactive = no such curve, though single readings can be large or run the other way. The list shows a part of the results.

Assay: Primary qHTS for Identification of Small Molecule Activators of Huntingtin-Antisense Promoter Activity; note: nearly all actives have a fitted effect of over 55% in size
Conditions: HEK293 HTT-AS promoter firefly luciferase reporter, 24 h; series mostly up to 57.5 µM; activity change, positive = activation: at the top concentration
Summary of the method: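 Firefly luciferase readout (Dual-Glo, 10 min RT) after 24 h, 37 °C compound exposure (final up to 57.5 uM) of HEK293 reporter cells cultured 24 h beforehand; PTC124 at 50 uM final as control inhibitor; activity scaled vehicle 0%, zero RLU -100%.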

Activity change, positive = activation, inactive:
Cc1ccc(-c2nnc(Nc3cccc(O)c3)c3ccccc23)cc1S(=O)(=O)N1CCOCC1 13.7% [at 11.5 µM, percent change from vehicle, -100% = no light]
CCC(C(=O)NCc1ccccc1)n1nc(C)c2sc3ccccc3c2c1=O (configuration not stated) -14.8%
COc1ccc(NC(=O)CCn2c(=O)c3cccn3c3cccnc32)c(OC)c1 -7.15%
CN(Cc1ccccc1)C(=O)Nc1ccc2c(c1)N(C)C(=O)c1ccccc1S2 -18.3%
CCc1ccc(CN(Cc2ccco2)c2cnc(S(C)(=O)=O)nc2C(=O)Nc2ccccc2Cl)cc1 -25.1%
COC(=O)c1scc(-c2ccc(C)cc2)c1S(=O)(=O)N1CCN(c2cccc(OC)c2)CC1 -23.5%
Fc1ccc(Nc2c3c(nc4ccccc24)CCC3)cc1 -38.1%
CCc1nnc(SC(CC)C(=O)Nc2cccc(OC)c2)c2cc3oc(C)cc3n12 (configuration not stated) -23.5%
Cc1ccc(Sc2c(C)nn(C(C)(C)C)c2OC(=O)C(C)(C)C)cc1 9.86%
O=C(NCc1ccco1)c1ccc2c(c1)N(Cc1ccc(Cl)cc1)C(=O)c1ccccc1S2=O (configuration not stated) -38.8%
CCOC(=O)c1ccc(NC(=O)CC2C(=O)OCCN2CC)cc1 (configuration not stated) -7.43%
CCN(C(=O)C1CCCN(S(=O)(=O)c2c(C)noc2/C=C/N(C)C)C1)c1cccc(C)c1 (configuration not stated) -28.9%
CCN(c1ccccc1)c1nnc(NC(=O)Nc2ccccc2F)s1 -30.1%
CCC(=O)N1CCc2cc(Br)cc(S(=O)(=O)CCC(=O)NCc3ccc(Cl)cc3)c21 -1.58%
Cc1nc(Oc2ccc(F)cc2Cl)c2oc3ccccc3c2n1 -33.4%
CCOc1ccccc1NC(=O)CN(C)S(=O)(=O)c1ccc2nc(C)sc2c1 -15.1%
Cc1ccc(CNC(=O)CC(C)S(=O)(=O)c2cc3c(cc2C)NC(=O)CO3)cc1 (configuration not stated) -9.48%
CSC1=NC2(CCN(C(=O)NC3CCCCC3)CC2)N=C1c1ccc(C)c(C)c1 -7.28%
Cc1ccc(NC(=O)CCc2nnc3n(C)c(=O)c4sccc4n23)cc1C -3.57%
Cc1ccc(C)c(NC(=O)CN2C(=O)C(C)(C)c3ccccc32)c1 -4.97%
COc1ccc(Br)cc1CNC(=O)c1cc2n(n1)CCCN(Cc1ccc(C)cc1)C2=O -7.13%
O=C(Nc1sc2c(c1C(=O)NCc1ccco1)CCCC2)c1cc(=O)c2ccccc2o1 2.79%
COc1ccc(N2CCN(C(=O)c3nc(SC)ncc3Cl)CC2)cc1 3.04%
CC1=C(c2ccc(C)c(C)c2)S(=O)(=O)N=C1N1CCC(C(=O)NCc2ccc(C)o2)CC1 -15.2%
Cc1ccccc1OCCn1c(CCNC(=O)C(C)(C)C)nc2ccccc21 -12.4%
CC(C)(C)OC(=O)N1CCC(c2c(C(=O)N3CCc4ccccc4C3)cnn2-c2ccc(F)cc2)CC1 -6.5%
COc1ccc(C(C)C)cc1S(=O)(=O)NCCc1c(C)[nH]c2ccc(C)cc12 -35.4%
CCOc1ccc(-c2nc(C#N)c(NCCCOC)o2)cc1 -9.78%
CC(NC(=O)CCCn1c(=O)c2cccn2c2cccnc21)c1ccccc1 (configuration not stated) -6.71%
Cc1coc2c(C)c3oc(=O)c(CCC(=O)NCCc4ccc(Cl)cc4)c(C)c3cc12 -3.71%
Cc1c2cnn(CC(=O)Nc3cccc(C(F)(F)F)c3)c(=O)c2c(C)n1Cc1ccccc1Cl -18.8%
CCOC(=O)N1CCc2c(sc3c2c(=O)n(-c2ccc(CC)cc2)c(=O)n3CC(=O)c2ccc(F)cc2)C1 -13.6%
COc1cc(C(=O)Nc2ccc3nc(SCc4ccccc4)sc3c2)cc(OC)c1OC -30%
CCN(C(=O)CSc1nc2ccccc2n1Cc1cc(C)ccc1C)c1ccccc1 -19%
Cc1c2cnn(CC(=O)NC(C)C)c(=O)c2c(C)n1Cc1ccccc1Cl 11.1%
O=C(Cn1nc(-c2ccc(Cl)cc2)ccc1=O)NCc1ccccc1Cl -5.09%
Cc1nnc(NS(=O)(=O)c2ccc(N)cc2)s1
COc1cccc(C2C(C(=O)Nc3ccc(C)cc3C)=C(C)Nc3c(C(=O)Nc4cccc(C)c4)cnn32)c1OC (configuration not stated) -6.78%
COc1cccc(N2CCN(C3C(=O)c4ccccc4N3C(C)=O)CC2)c1 (configuration not stated) -16.9%
COc1ccc(N2CCN(C(=O)c3ccc(-c4nc(COc5ccccc5)c(C)o4)cc3)CC2)cc1 -1.34% [at 11.5 µM, percent change from vehicle, -100% = no light]
CCCNC(=O)C1CCC(Cn2c(=O)c3sccc3n(CC(=O)N3CCC(C)CC3)c2=O)CC1 (configuration not stated) -9.8%
Cc1cccc(OCC(=O)N(Cc2sccc2C)C2CCS(=O)(=O)C2)c1 (configuration not stated) -12.9%
O=C(NCc1cccc(Cl)c1)C1CCN(C(=O)c2sccc2-n2cccc2)CC1 -22.5%
CCc1ccc(C(=O)c2cn(CC(=O)Nc3ccc(OC)cc3OC)c3ccc(CC)cc3c2=O)cc1 -18.6%
COc1cccc(C(=O)Nc2cccc(C(=O)OCc3cc(=O)n4nc(C(C)C)sc4n3)c2)c1 29.7%
CC(=O)N1CCC(N(C(=O)Nc2c(F)cccc2F)C(C)C)CC1 -1.82%
Cc1ccc(N(C)C(=O)c2cnc(N3CCOCC3)c3ccccc23)cc1C -13%
COc1ccc(OC)c(CNC(=O)Cc2ccc(NC(=O)N3CCCCc4ccccc43)cc2)c1 -12.5%
COCCCNC(=O)c1c(NC(=O)Cc2coc3cc(C)cc(C)c23)sc2c1CCCC2 -16.9%
CCc1ccc(CNC(=O)CSc2cc(=O)n(C)c3ccc(Cl)cc23)cc1 -15.1%
CCN(CCCNC(=O)c1cc2c(=O)n(CC)c3ccccc3c2s1)c1ccccc1 -24.9%
COc1ccc(-c2cc(-c3ccccc3)nc(SCC(=O)CC(=O)OC(C)C)c2C#N)cc1 -17.2%
O=C(c1ccc2c(c1)N(Cc1ccccc1F)C(=O)c1ccccc1S2(=O)=O)N1CCCC1 -14.3%
COc1ccc(C(=O)N(Cc2cc(OC)c(OC)c(OC)c2)CC2CCCO2)cc1 (configuration not stated) -13.1%
Cc1cc(F)ccc1NCc1ccccc1-c1nnc(-c2ccccc2Cl)o1 17.6%
O=C(NCC(c1cccnc1)N1CCc2ccccc21)c1cccc(C(F)(F)F)c1 (configuration not stated) -27%
Cc1ccc(-c2noc(-c3nnn(CC(=O)Nc4cc(C)cc(C)c4)c3N)n2)cc1 -0.0283%
CCCNC(=O)CSc1nc2nc(C)c(Cc3ccccc3Cl)c(C)n2n1 -0.796%
COc1ccc(CCCc2nnc(SCC(=O)Nc3ccc(C)cc3C)o2)cc1 -13.6%
CCN(CC)S(=O)(=O)c1cc(-c2onc(C)c2C)ccc1OC -13.2%
O=S(=O)(NCc1cccc(Br)c1)c1ccc(-c2cc(C(F)(F)F)on2)s1 -23.8%
COc1ccccc1CNC(=O)CN1C(=O)COc2ccc(S(=O)(=O)N3CCCCC3)cc21 -6.88%
Cc1cc(C)cc(N2C(=O)N(CC(=O)c3ccc(Br)cc3)c3ccccc3S2(=O)=O)c1 -13.6%
COC(=O)c1sccc1S(=O)(=O)N(CC(=O)NCc1ccc(C)cc1)c1ccc(Cl)cc1 -34.8%
COc1ccc(C(=O)Nc2ccc3nc(SCC(=O)N4CCCc5ccccc54)sc3c2)cc1 -27.7%
CCN(CC)C(=O)c1sc2c(c1C)c(=O)n(-c1ccc(Cl)c(Cl)c1)c(=O)n2Cc1cc(=O)n2c(C)cccc2n1 -14.6%
CCCCn1cc(S(=O)(=O)c2ccc(OC)cc2)c(=O)c2cc(F)c(N3CCCC3)cc21 -4.23%
Cc1ccc(-c2nc(C)c(CCNS(=O)(=O)c3ccccc3F)s2)cc1 -2.98%
CN1C(=O)C(C)(C)c2cc(S(=O)(=O)NCc3ccc(C(=O)Nc4ccc(Cl)cc4)cc3)ccc21 -60.3%
Cc1cccc(NC(=O)N2CCC(CN3CCc4ccccc4C3)CC2)c1C -11.8%
CCOc1ccc(NC(=O)Cn2cc(C(=O)c3ccc(C)c(C)c3)c(=O)c3cc4c(cc32)OCCO4)cc1 -18.1%
CCOc1ccc(-c2nc(SCC(=O)NCCOC)c(-c3ccc(OC)c(OC)c3)[nH]2)cc1 -9.45%
CCc1ccc(-n2nc(C)c3c(C(=O)Nc4cc(OC)cc(OC)c4)cc(C)nc32)cc1 -24.7%
CSc1nc2sc3c(c2c(=O)n1-c1ccc(F)c(Cl)c1)CCN(C(C)=O)C3 -13.2%
Cc1cc(C)cc(NC(=O)CSc2nc(-c3cccc(Cl)c3)nc3c2Cc2c(CO)cnc(C)c2O3)c1 -9.88%
COc1ccc(CNC(=O)Cn2c(SCC(=O)Nc3ccc(C)c(C)c3)nc3ccccc32)cc1 -44%
O=C(CSC1=Nc2ccccc2C2=NC(Cc3ccccc3)C(=O)N12)Nc1ccccc1F (configuration not stated) -3.2%
CCOC(=O)NC1(C(F)(F)F)NC(=O)N(c2ccc(C)c(C)c2)C1=O (configuration not stated) -23.7%
COc1ccc(S(=O)(=O)NCCc2csc(-c3ccc(F)cc3)n2)cc1 -0.976%
Cc1cc(C)cc(OCC(=O)Nc2ccc(S(=O)(=O)Nc3onc(C)c3C)cc2)c1 -13.2%
COc1ccc(-n2nc(C(=O)Nc3cccc(C(F)(F)F)c3)c3c4ccccc4n(C)c3c2=O)cc1 -7.7%
Cc1nn(CC(=O)NCc2ccccc2Cl)c(=O)c2nn(-c3ccccc3)c(C)c12 -18%
Cc1ccccc1NC(=O)CSC1=Nc2ccccc2C2=NC(CCC(=O)NCc3ccccc3)C(=O)N12 (configuration not stated) -22.2%
CCN1CCC[C@H]1CNC(=O)c1c(OC)ccc(Br)c1OC -6.02%
CCN1CCN(c2cc3c(cc2F)c(=O)c(C(=O)O)cn3C2CC2)CC1 -1.91%
CCCCn1c2ccc(F)cc2c2nnc(SCCN(CC)CC)nc21 -7.32%
Cc1ccc(CNC(=O)c2c3c(nc4ccccc24)C(=O)N(C2CCCCC2)C3)cc1 -23.2%
FC(F)c1nc2ccccc2n1-c1nc(N2CCOCC2)nc(N2CCOCC2)n1 -23%
COc1ccc(Cl)cc1NC(=O)CSc1nccn1Cc1ccco1 0.0803%
Cc1csc2nc(COC(=O)c3ccccc3NC(=O)c3ccc(F)cc3)cc(=O)n12 -17.5%
COc1cccc(NC(=O)CSc2nc3ccccc3nc2N2CCOCC2)c1 -18.5%
CCc1ccc(CN2C(=O)c3ccccc3C2C(=O)NCCc2ccc(OC)c(OC)c2)cc1 (configuration not stated) -16.8%
